From the RNAGym collection of RNA variant scans (doi:10.1073/pnas.2313332121)
Variants at the floor of the assay are shown more often than the library holds them.

B1: TPR 5TU (parent)
chain: GGAUCUUCUCGAUCUAACAAAAAAGACAAAUCUGCCACAAAGCUUGAGAGCAUCUUCGGAUGCAGAGGCGGCAGCCUUCGGUGGCGCGAUAGCGCCAACGUUCUCAACUAUGACACGCAAAACGCGUGCUCCGUUGAAUGGAGUUUAUCAUG

Variants of: B1
Assay: polymerase ribozyme fitness, log enrichment relative to wild type (log ratio); higher = more active; in vitro selection for triplet polymerase activity
In short: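 Libraries of mutants in each subunit of a heterodimeric triplet polymerase ribozyme were generated by PCR and transcribed. In triplicate, each went through one in vitro selection round: annealing with biotinylated primer, partner subunit and triplets; frozen incubation at −7 °C; gel excision of extended constructs; streptavidin-bead capture; RT-PCR. Fitness, taken from Illumina sequencing of input and output libraries, is the logarithm of a genotype's enrichment over wild-type enrichment, averaged across replicates with inverse-variance weights. The logarithm is base 2, and genotypes needed ≥10 input reads and ≥1 read per output to be kept.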

Polymerase ribozyme fitness (log ratio), -1.65:
C54A A121U G141C

Polymerase ribozyme fitness (log ratio), -1.38:
C54U G84A G92U U144A

Polymerase ribozyme fitness (log ratio), -2.12:
C54A C85U C105U A142C

Polymerase ribozyme fitness (log ratio), -1.01:
U53C A150G

Polymerase ribozyme fitness (log ratio), -3.58:
U53A G92C U102C

Polymerase ribozyme fitness (log ratio), -3.74:
U53C A97U C114G U145A

Polymerase ribozyme fitness (log ratio), 0.0261:
C54U A122U

Polymerase ribozyme fitness (log ratio), -0.685:
C54A C116G

Polymerase ribozyme fitness (log ratio), -0.537:
C54A U82C U146C

Polymerase ribozyme fitness (log ratio), -2.19:
C54U C95U G133C

Polymerase ribozyme fitness (log ratio), -1.91:
C54A U55A
U53A G83U A147C

Polymerase ribozyme fitness (log ratio), -1.92:
U53G C93U

Polymerase ribozyme fitness (log ratio), -3.63:
C54G G140U

Polymerase ribozyme fitness (log ratio), -2.74:
U53C G143U

Polymerase ribozyme fitness (log ratio), -2.09:
C54U C87U C105A

Polymerase ribozyme fitness (log ratio), -3.14:
C54G C99G G136U

Polymerase ribozyme fitness (log ratio), -3.21:
U53G U61A

Polymerase ribozyme fitness (log ratio), -3.27:
U53A U61A A106U C129U

Polymerase ribozyme fitness (log ratio), 0.134:
U53A G126U

Polymerase ribozyme fitness (log ratio), -2.2:
C54U U55A G86A C116G

Polymerase ribozyme fitness (log ratio), -1.44:
C54U C95A

Polymerase ribozyme fitness (log ratio), -3.91:
U53A G81C C85G C108U A138G A147G A150U G152U

Polymerase ribozyme fitness (log ratio), -2.53:
U53G G141C

Polymerase ribozyme fitness (log ratio), -3.57:
C54A A91G A120G

Polymerase ribozyme fitness (log ratio), -0.879:
U53A G126A

Polymerase ribozyme fitness (log ratio), -1.56:
C54G G83U G141U

Polymerase ribozyme fitness (log ratio), -3.9:
C54U C69G C85G

Polymerase ribozyme fitness (log ratio), -4.1:
U53C G58C C93U C96G G140A
U53A G67C C76G G84A C114U

Polymerase ribozyme fitness (log ratio), -1.41:
C54U C93U A98G

Polymerase ribozyme fitness (log ratio), -2.36:
U53A G81A C99U

Polymerase ribozyme fitness (log ratio), ≤ -4.2:
C54G C87U U148A
C54U G86C C93U C96G G128C
U53G U55A U82C G143U
C54U C85G C95U
U53A G59A C85A G88A U151A
U53G A64U C85A C96G
U53A U61G C95G C99U A107U C116U C149U
C54U C57G G59A C63U C79A U82C C99U
U53A G58U C85G G92A C96G
U53A U55A A89G C93A U146G
C54A C85A C132U U148C
C54G U55G A64C A66C U78G G88U
C54A U56A G68U A107U U134G U146C
C54G C93A G94U U139C
U53C C72A U139C A150G
U53G C103A C105G U130A
C54U C76G A91U U135G
C54A U78A C85U G143C
C54G C75G C85G C103G
C54G G84A G88C U101G
C54U G59A A106G A137U A138U
U53C G59C A91U
U53A G71A C75G C76U G86A A107U C108U
U53G C79U
C54U C95U C96U U146A A150C G152C
C54G G59A C76A C85G A121C C123A U127G G140C G143U A150C
C54U C95A C103A U111A C114U U148A
C54U C72A A73C A91C
C54G A97U C103G
U53G A98U A115G A142C U145A
C54G C79A A91G
C54A G58C A60U G92A U111A
C54A A91C C95U A107C
C54A C87G A98G
C54A C57A A66G G67A A73U
U53G C76A U134A
U53G U77G C96G C118A U134C G141U
C54A C93G G94U
C54A A64U G74U U130G
C54U A98G C108G
U53A G58C C69G C87G
C54U C93G C96A
C54U C69A C85U C129A
C54A C85A C87U G140A A142G
C54G G58C C75G U90C C99G
C54U G71A C96G U148G
C54U C57U C87A G133A
C54A A60U A89U C103A
C54G C95U U104G U130G U139A
C54G U82G G83U G94A C99A A122G
C54U G71U U135A A138C
U53G C85G C93G C125U G141A A142G
C54U C87G A91U C95U G100C G128C
U53C C95U U104A G128C U139C
C54A G71U A91G C96A A106U
C54G U55A G83A A121C G136U G141C U148G
C54U A89U G92A U102G
C54U A137C
U53C C87A
C54A C87G C114U C118U
U53C C76A C96A G140C
U53G C79G A91C U109A
U53C C63G C87A C95U A106U
U53G G58C C95G A122U
C54G C72A U77C C85G
U53A U55G C79U G92A G94U G128U U134A U146G
C54A U78G C125U
C54U C72G C85G C118U G141C
U53A U90G G92C
C54A C79G G92U G152A
U53A U56A G70A U109C
C54U C76A A91G G141C U151G
C54U A64C
U53A G65U G83C C103U A110G U111G
U53G C63U G80C G81C G84U G100U
C54A C75G G83U
C54A A60U A73C A91U C99G C108A A142U
U53A U56A G67U G94A U102C C116U C125U U130C
C54U G65U C75A G81A G83C U102G G140C
C54A U56C C96A A106C C108A U111A G126C
U53G A60U C69U C131G
C54G A107C U146C
C54G U55A U101G A115G G133U
U53G C69A
C54A C87G
C54G C87A C96G G100A G117C U144A A147C A150G
U53G G58A U77A C99A
C54U C85G A91U
C54A C108A
U53G A91U G143A
C54A U55G G100A A113U A142U
U53G C95U C125U A142C
C54U G80A G86U U90G C105U
C54G C95G A107U C108G G143A U145C
C54U G92A U101G A110G U146A
U53G C54A A91G A110G C114G
U53A G92A U146C C149A G152U
C54U G58C C75G A89G A142U
C54G C95U U139G U148G
C54A G70C G80C C85U C99G C132A
C54A U55G C93G A107U G141C
U53C C118U C129G G141A
U53G C79G G92A A110G
C54U U55A G59C C108A G140U U144C
C54G U56A G68U G92C A115G U145C
U53A G84U A113U A115C U146A G152A
C54A G58C A91U C116G C118U A121G
U53A U56A G71U G86C C103A A119C A121U
U53A U77G A91G A138U
U53G C99A G117U
U53A G70C U101G C105A
C54U G65A C96A A107U
C54U C75G A91G C96A
U53G G68A
U53A G58C A66C G84A A91G U102G A119U C132A
U53A G84A A89C C95A U111A A150G
U53A G128C A137C U148G C149G
C54U A73G G80C G83C C125G G143U
C54G A91U G117C G141U
C54A U55A G65A U145G C149G
C54A G65U
U53G U61A U78C A91U A107C C116U G140C
U53A U61C C79G A115U A150U
U53G A66U C93G
U53G A66C G92C A121C
C54U A64U C76G C93U A120G C123A G141A U146A
C54A U78G G80U C85U U134A
C54A C95U C96U G140C
C54G G68A C93A C108G A121C A147C
U53A U82G G100A
U53G U56G A64U G67C C149A
C54A C75A C85U

Polymerase ribozyme fitness (log ratio), -0.818:
C54G A97G

Polymerase ribozyme fitness (log ratio), -3.4:
U53A U148C

Polymerase ribozyme fitness (log ratio), -3.13:
C54A G94C G141A
